Results reported in publication PMC4336329 (PLoS ONE, 2015).
The whole screen tested about 310,000 compounds, of which about 2,200 (0.71%) showed an effect of 50% or more. The effect is printed as a negative number. The list shows a part of the results.

target: human ether-à-go-go-related gene (hERG) potassium channel (human, UniProt Q12809); assay: primary screen, population patch clamp on CHO cells stably expressing hERG
Sequence (Q12809 whole entry, looked up): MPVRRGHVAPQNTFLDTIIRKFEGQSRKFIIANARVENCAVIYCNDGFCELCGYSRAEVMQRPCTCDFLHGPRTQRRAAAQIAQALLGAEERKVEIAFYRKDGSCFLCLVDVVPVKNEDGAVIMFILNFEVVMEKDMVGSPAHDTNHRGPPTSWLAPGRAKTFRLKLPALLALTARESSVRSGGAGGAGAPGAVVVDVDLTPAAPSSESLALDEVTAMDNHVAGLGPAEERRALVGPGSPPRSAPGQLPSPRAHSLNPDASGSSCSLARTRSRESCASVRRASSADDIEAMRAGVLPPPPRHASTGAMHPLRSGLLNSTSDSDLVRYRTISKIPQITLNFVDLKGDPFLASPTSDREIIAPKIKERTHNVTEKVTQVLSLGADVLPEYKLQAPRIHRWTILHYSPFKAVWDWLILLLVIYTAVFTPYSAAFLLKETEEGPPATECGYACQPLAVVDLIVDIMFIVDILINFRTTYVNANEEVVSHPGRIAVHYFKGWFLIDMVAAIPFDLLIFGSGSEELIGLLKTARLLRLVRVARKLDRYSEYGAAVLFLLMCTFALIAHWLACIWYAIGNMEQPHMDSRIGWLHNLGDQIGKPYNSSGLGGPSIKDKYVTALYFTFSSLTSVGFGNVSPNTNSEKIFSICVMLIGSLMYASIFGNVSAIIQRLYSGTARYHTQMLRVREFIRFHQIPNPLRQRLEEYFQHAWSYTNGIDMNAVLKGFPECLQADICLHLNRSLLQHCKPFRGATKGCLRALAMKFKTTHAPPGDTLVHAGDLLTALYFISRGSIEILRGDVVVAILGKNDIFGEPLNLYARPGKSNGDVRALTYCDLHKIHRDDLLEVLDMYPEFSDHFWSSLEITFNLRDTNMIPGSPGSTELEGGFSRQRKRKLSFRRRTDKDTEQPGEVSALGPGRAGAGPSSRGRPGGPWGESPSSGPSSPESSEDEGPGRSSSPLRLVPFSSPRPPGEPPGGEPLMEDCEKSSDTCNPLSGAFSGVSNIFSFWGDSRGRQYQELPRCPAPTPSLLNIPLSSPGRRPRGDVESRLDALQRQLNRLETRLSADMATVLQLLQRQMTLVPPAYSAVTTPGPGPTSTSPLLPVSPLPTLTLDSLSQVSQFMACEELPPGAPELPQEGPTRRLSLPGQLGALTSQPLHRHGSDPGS

Row | SMILES | hERG current change (%, negative = inhibition) at 1uM [%]
1 | CC(C)(C)C(=O)Nc1c2c(nn1-c1ccc(F)cc1)CSC2 | 12.4
2 | C=CCNC(=S)N1CCc2c([nH]c3ccccc23)C1C (centres unmarked) | 2.1
3 | CC(=O)CCC(=O)NCCc1ccccc1F | 5.68
4 | O=C(c1ccc2c3c(cccc13)CC2)N1CCOCC1 | 10.4
5 | CC(C)CC(=O)N1CCN(S(=O)(=O)c2ccc(C3CCCCC3)cc2)CC1 | 10.2
6 | Cn1cnnc1Sc1ccc(C(=O)OCC(=O)Nc2ccccc2)cc1[N+](=O)[O-] | 3.13
7 | CCOC(=O)c1cc(-c2cccc([N+](=O)[O-])c2)n[nH]1 | 3.04
8 | O=C(Nc1nnc(CCN2CCOCC2)s1)c1ccccc1 | 7.54
9 | Cn1c(CNC(=O)c2ccco2)nnc1SCC(=O)c1ccccc1 | -3.44
10 | CCCC/C(C)=C/[C@@H](NP(=O)(c1ccccc1)c1ccccc1)c1ccccc1 | 7.59
11 | C/C(=N\NC(N)=S)C1C2C3CC4C5CC(C42)C1C53 (centres unmarked) | 1.65
12 | CCOc1ccc(OCC)c(S(=O)(=O)N2CCOCC2)c1 | 11.8
13 | CN(c1cccc(NC(=O)c2ccc(CN3CCc4ccccc4C3)cc2)c1)S(C)(=O)=O | 10.2
14 | Cc1ccccc1NS(=O)(=O)c1ccc2[nH]cc(C(=O)N(C)Cc3ccco3)c(=O)c2c1 | 10.5
15 | COc1ccc([C@H]2[C@@H]3C=CCC[C@@]3(C)C(=O)N2Cc2ccccc2)cc1Cl | 16.5
16 | Cc1ccc(OCC(=O)N2CCN(S(=O)(=O)c3ccc4c(c3)OCCO4)CC2)c(C)c1 | 10
17 | Fc1ccccc1/C=N/Nc1nc2ccccc2o1 | 13.8
18 | CC(=O)c1cccc(NC(=O)c2cccc(NC(=O)c3ccco3)c2)c1 | 14.9
19 | CCCC1CCc2c(sc(NC(=O)c3cccs3)c2C(N)=O)C1 (centres unmarked) | -1.72
20 | Cc1ccc(-n2cc(CNCCCN3CCCC3=O)c(-c3ccc(F)cc3)n2)cc1 | -20.5
21 | Cc1ccc(-c2nc3ccccc3c(=O)n2-c2ccc(Br)cn2)cc1 | -3.58
22 | O=C(NCCCn1ccnc1)c1ccncc1 | -1.81

Row | SMILES | hERG current change (%, negative = inhibition) at 1uM [%]
23 | O=C(Cc1ccccc1[N+](=O)[O-])NC1CCN(Cc2ccccc2)CC1 | 10.1
24 | CCOc1ccc(N(C(=O)C2CCCO2)C2C=CS(=O)(=O)C2)cc1 (centres unmarked) | 11.8
25 | CC(C)[C@H](NS(=O)(=O)/C=C/c1ccccc1)C(=O)OCC(=O)NC(N)=O | 27
26 | CCn1c(C)[n+](CCOCC[n+]2c(C)n(CC)c3cc(Cl)c(Cl)cc32)c2cc(Cl)c(Cl)cc21.[I-] | 8.45
27 | O=C(c1ccc(OC2CCN(Cc3ccccn3)CC2)cc1)N1CCCCO1 | -7.22
28 | COc1ccc(/C=N/NS(=O)(=O)c2ccc(C)cc2)cc1OC(=O)c1ccc(C)cc1 | 13.5
29 | CC(Sc1nnc(-c2ccccc2F)n1C)C(=O)NC1CCCCC1 (centres unmarked) | 4.28
30 | Cc1ccc(NC(=O)CCn2cnc3ccccc3c2=O)cc1Cl | 8.77
31 | O=C(NCc1nc(-c2ccc(C(F)(F)F)cc2)no1)Nc1ccc(F)cc1F | 10.7
32 | CCCCCn1c(C(Cc2ccccc2)NC(C)=O)nc2ccccc21 (centres unmarked) | 10.8
33 | Cc1cc2c(cc1S(=O)(=O)N1CCCCC1)OCC(=O)N2 | 7.82
34 | Cc1ccc(OCC(=O)n2nc(C)cc2C)c(C)c1 | 15.8
35 | Cc1nn(C)c(C)c1S(=O)(=O)N(CC(=O)NC1CCCCCC1)c1ccc(C(C)C)cc1 | 2
36 | CC(=O)Nc1cccc(NC(=O)CSc2nn3c(=O)c(C)nnc3s2)c1 | 12.4
37 | CC(=O)Nc1ccc(S(=O)(=O)Oc2cccc(N3C(=O)C4CCCCC4C3=O)c2)cc1 (centres unmarked) | -1.48
38 | CCSP1(=S)N=C(N2CCOCC2)C(C#N)=C2CCCN21 (centres unmarked) | 0.832
39 | CCOCCCNC(=O)c1cc2c(=O)n3cccc(C)c3nc2s1 | 10.7
40 | Cc1nnc2n1NC(c1ccc(Cl)cc1)C(C(=O)N(C)C1CCCCC1)S2 (centres unmarked) | -4.55
41 | O=C(O)c1ccc(Cl)c(S(=O)(=O)Nc2ccccc2Cc2ccccc2)c1 | 15.4
42 | CC(O)C(NS(=O)(=O)c1ccc(Cl)cc1)C(=O)OCc1nnc(-c2ccccc2)o1 (centres unmarked) | 2.11
43 | O=C(CN(CC1CCCO1)C(=O)CNS(=O)(=O)c1ccc(F)cc1)NC1CCCC1 (centres unmarked) | 12
44 | Cc1ccn2cc(CNC(=O)c3cccs3)nc2c1 | 10.5

Row | SMILES | hERG current change (%, negative = inhibition) at 1uM [%]
45 | c1ccc(CN2C3=NCCN3c3ccccc32)cc1 | 2.38
46 | Cc1cc(C)cc(NS(=O)(=O)c2ccc3oc(=O)ccc3c2)c1 | -13.4
47 | Cc1nnc(NC(=O)C23CC4CC(C)(CC(C)(C4)C2)C3)s1 | 18.5
48 | N=c1c2c3c(sc2ncn1CCCO)CCCC3 | -3.83
49 | Cc1cccc(NS(=O)(=O)c2ccc3c(c2)CCN3C(=O)CCC(=O)O)c1 | 18.6
50 | COc1ccc(/C=N/N=C2/NC(=O)C(CC(=O)NC(C)C)S2)cc1 (centres unmarked) | 5.58
51 | COC(=O)C1CSC(C(=O)OC)N1C(=O)CN1CCN(c2ccccc2)CC1 (centres unmarked) | 17.2
52 | Cc1occc1-c1nnc(SCC(=O)N2c3ccccc3CCc3ccccc32)n1C | 8.53
53 | CCO.CN1CCC2(CC1)C1CN(C)CC=C1C(C#N)=C(N)C2(C#N)C#N.O (centres unmarked) | 5.51
54 | O=C(Cc1ccccc1)NCC(=O)OCc1ccc([N+](=O)[O-])cc1 | 3.3
55 | COc1ccc(NC(=O)CSCc2cc(=O)n3ccsc3n2)cc1 | 13.4
56 | CC(=O)c1c(-c2ccc(C)cc2)nc2c3ccccc3ccn12 | 13.7
57 | Cc1cnn(-c2cc(N/N=C/c3ccccc3Cl)ncn2)c1 | 15.2
58 | CC(C(=O)O)n1nnc2ccccc21 (centres unmarked) | 10.7
59 | COC(=O)COC(=O)c1ccc(O)cc1 | -12.9
60 | CCOC(=O)C1=C(CSc2nc(-c3ccncc3)ccc2C#N)OC(N)=C(C#N)C1c1ccc(OC)cc1 (centres unmarked) | 2.15
61 | CCSc1ccc([C@@H]2[C@@H]3C(=O)N(CC)C(=O)[C@@H]3[C@]3(C(=O)OC)CCCCN23)cc1.O=C(O)C(F)(F)F | 7.91
62 | O=C(Nc1ccc2c(c1)OCCO2)C1CCCN(c2ncccn2)C1 (centres unmarked) | 9.02
63 | COc1cccc(-c2ccc3ncnc(NCc4cccc(C)c4)c3c2)c1 | 5.75
64 | O=C(OCC(=O)N1CCOCC1)c1ccc[nH]c1=O | 7.16
65 | COC(C(=O)Nc1ccc(S(=O)(=O)Nc2ccc(F)cc2)cc1)c1ccccc1 (centres unmarked) | 7.53
66 | CCN1CCc2c(sc(NC(=O)c3ccc(S(=O)(=O)N4CCCCCC4)cc3)c2C(=O)NC)C1 | 7.02

Row | SMILES | hERG current change (%, negative = inhibition) at 1uM [%]
67 | CCC(C)NC(=O)C1c2cc(OC)c(OC)cc2C(=O)N(C)C1c1cccs1 (centres unmarked) | 5.1
68 | CCC1=NN2C(=N)/C(=C\c3ccc(OCCOc4ccc(NC(C)=O)cc4)c(OC)c3)C(=O)N=C2S1 | 22.6
69 | Cl.N#CC(c1ccccc1)C1CCN(Cc2ccccc2)CC1 (centres unmarked) | -13.2
70 | C/C=C/c1ccc(OCC(O)CN2CCCCCCC2)c(OC)c1 (centres unmarked) | -6.44
71 | Cc1ccc(C(CNS(=O)(=O)c2ccc([N+](=O)[O-])cc2)N2CCN(C)CC2)cc1 (centres unmarked) | -49.1
72 | O=[N+]([O-])c1ccc(N/N=C/c2c[nH]c3ccccc23)cc1 | 12.3
73 | O=C(c1ccc([N+](=O)[O-])s1)N1CCN(c2cccc(Cl)c2)CC1 | -10.9
74 | Cc1c(Br)c([N+](=O)[O-])nn1C(C)C(=O)Nc1c(C)n(C)n(-c2ccccc2)c1=O (centres unmarked) | 0.944
75 | O=C1N2CCSC2=NC1(NS(=O)(=O)c1ccccc1)C(F)(F)F (centres unmarked) | 1.48
76 | CC(=O)c1cc(C(=O)N2CCc3c([nH]c4ccccc34)C2CC(C)C)[nH]n1 (centres unmarked) | 14.5
77 | COc1ccc(CSc2nncn2N)cc1[N+](=O)[O-] | 14.2
78 | C=CCNc1nc(Nc2ccc([N+](=O)[O-])cc2)nc(OCC)n1 | 12
79 | CCCOc1ccc(C(=O)NCC(c2ccco2)N(C)C)cc1OC (centres unmarked) | 7.23
80 | COc1ccccc1NC(=O)C1CCN(C(=O)c2ccco2)CC1 | 19.8
81 | O=C(Nc1cccc(-c2csc(-c3ccccc3)n2)c1)c1cccs1 | 9.82
82 | COCCNC(=O)c1sc2ncn(CC(=O)Nc3ccc(C)c(Cl)c3)c(=O)c2c1C | 14.8
83 | Cc1cc([N+](=O)[O-])ccc1NCc1ccc2ccccc2c1 | 13.8
84 | Cc1cc2ncn(CCOc3ccccc3C#N)c2cc1C | -4
85 | C#CCOCCOCCOCCNc1nc(N2CCN(C(=O)C([C@@H](C)CC)n3cc(C(N)CC(C)C)nn3)CC2)nc(N2CCN(C(=O)[C@H](CCC(=O)O)n3cc(C(N)[C@H](C)CC)nn3)CC2)n1.Cl (some centres unmarked) | 16.6
86 | Cc1ccccc1Cn1nc(C)c(NC(=O)c2noc3c2CC(C(C)(C)C)CC3)c1C (centres unmarked) | 11.7
